This is one part of the list. At the low end of the ranking, values are background and their order means little.

This assay deals with T1, GST-Rok (full length) (UniProt O34857).
T1 sequence: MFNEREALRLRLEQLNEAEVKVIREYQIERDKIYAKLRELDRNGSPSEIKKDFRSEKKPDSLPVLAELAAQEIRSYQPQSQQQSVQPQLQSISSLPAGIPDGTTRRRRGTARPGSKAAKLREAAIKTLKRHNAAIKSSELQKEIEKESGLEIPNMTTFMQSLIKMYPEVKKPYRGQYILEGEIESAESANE
Kind of assay: protein binding microarray.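 Further: rank score from −0.5 (least bound) to 0.5 (best bound).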 Conditions: Rok is a gene silencer of Bacillus subtilis; high values mean tight binding; most listed sequences are background and not binding sites; double strand, one strand shown.
Consider CCTAGACG, for which the binding signal is -0.169 E-score.
The value for ACAATCGT was 0.0173 E-score.
To CTGCCATC belongs -0.285 E-score.
The value for CGACGTCA was -0.0313 E-score; that for GGAGAAAC was 0.0274 E-score; that for GTAGACAA was -0.0127 E-score.
In the case of GGACACGA, the binding signal is -0.177 E-score.
To AAACCCTT belongs -0.153 E-score; to CGAGTAAA, 0.0537 E-score; to CGGTGCCA, -0.362 E-score.
The value for GTCGATTA was 0.139 E-score.
In turn, ATATCGTC had a binding signal of 0.182 E-score.
To CTTCCGGA belongs -0.156 E-score; to CACAGCCG, -0.136 E-score.
Consider CAAGTTTA, for which the binding signal stood at 0.00675 E-score.
To GTTAAAGA belongs -0.0952 E-score; to CATCCCAA, -0.0485 E-score; to CGTAACAA, 0.0434 E-score.
To CATCAGTC belongs -0.00175 E-score; to TCTCAAGA, -0.138 E-score; to CAGTGACC, -0.197 E-score.
The value for AACTCTAC was 0.249 E-score.
As for ACATTACC, the binding signal amounted to 0.168 E-score.
The value for AATAACAC was 0.18 E-score.
In turn, AGGACTAC registered a binding signal of -0.0384 E-score.
In the case of CAAAATCA, the binding signal worked out at 0.118 E-score.
The value for ATTACGGA was 0.176 E-score; that for CCACGTGG was -0.121 E-score.
ATTATACC: the binding signal is 0.269 E-score.
In turn, ATTAGCCG showed a binding signal of -0.0406 E-score.
GAGGCTCA gave a binding signal of -0.246 E-score.
Sequence ATGCGCTC showed a binding signal of -0.0342 E-score.
To ATAGTCGG belongs 0.0693 E-score; to CCACCTAG, -0.146 E-score.
To GAAACATA belongs 0.277 E-score; to CTAAATCC, 0.151 E-score; to CCATTACC, 0.177 E-score.
To CTGTTTTA belongs 0.142 E-score.
Regarding GTTAGGCA, the binding signal was -0.0231 E-score.
The value for CACAGAGC was -0.126 E-score; that for AGGAGAAA was 0.0433 E-score; that for CTGTTAAA was 0.04 E-score.
To GAGCGAGC belongs -0.23 E-score.
CATTACCG registered a binding signal of 0.00887 E-score.
The value for TATACTCA was 0.267 E-score; that for ATTCTTTC was 0.0013 E-score; that for CGCACTAC was -0.0229 E-score.
In the case of GACAATAC, the binding signal came to 0.0702 E-score.
To ATCATCTA belongs 0.196 E-score; to GGGCCGCA, -0.366 E-score; to GACGCCGC, -0.157 E-score.
AACTTTCG had a binding signal of -0.0406 E-score.
AAGAACAG: the binding signal is -0.257 E-score.
To ACCGAGCA belongs -0.0882 E-score; to GGAGGACA, -0.304 E-score.
The value for CGAATTAG was 0.307 E-score; that for ACGTACTG was 0.146 E-score; that for AGGTATGA was 0.249 E-score.
For GACTCCGA, the binding signal is -0.151 E-score.
To ATATTCGA belongs 0.331 E-score; to GTCCACAC, -0.0314 E-score; to ATAGAGGG, -0.235 E-score.
On to AGTACCAG, for which the binding signal came out at 0.0256 E-score.
The value for TCTTCGAA was -0.0648 E-score; that for AAGTGTAG was 0.179 E-score; that for GGTCTGTA was -0.0472 E-score.
GTAGGTCA displayed a binding signal of 0.101 E-score.
GCTACGCC yielded a binding signal of -0.283 E-score.
To CCGTAGAC belongs -0.216 E-score.
In turn, ATGCAAGA returned a binding signal of 0.0382 E-score.
To CAATTTCG belongs 0.0559 E-score.
To ACCATGCT belongs -0.182 E-score; to TAGGTTCA, 0.128 E-score.
In turn, ACAACTGC showed a binding signal of 0.0893 E-score.
The value for CCGTTTAC was -0.126 E-score; that for AATCCTGT was 0.155 E-score; that for CGAGGTAA was 0.0494 E-score.
The value for AACGCCCT was -0.11 E-score; that for TGCTCACA was -0.000811 E-score.
For the sequence CCGAGCGC, the binding signal is -0.325 E-score.
To CTGGTAAG belongs 0.00927 E-score.
The value for AGCATTCA was 0.15 E-score; that for AACCTCGA was 0.11 E-score; that for CCCTCTCG was -0.252 E-score.
The value for GGCTAACA was -0.00248 E-score.
In turn, ATCACCCC showed a binding signal of -0.297 E-score.
The value for ACGTACGG was 0.0672 E-score.
For the sequence CTGGAATA, the binding signal turned out to be 0.171 E-score.
As to CGGATTAG, the binding signal is -0.0251 E-score.
Sequence CTAGGGTA yielded a binding signal of 0.0773 E-score.
The value for CGCGTTAA was -0.151 E-score; that for GGCAGTGA was -0.379 E-score.
To ATGTGTAA belongs 0.25 E-score; to GATTCAGC, -0.155 E-score; to CCACAGAG, -0.232 E-score.
The value for CGAATCAA was -0.00317 E-score; that for CCAAGCCC was -0.288 E-score; that for GGTGACTA was -0.0635 E-score.
Sequence GAACCAAC displayed a binding signal of -0.0463 E-score.
The value for GAGTGACA was -0.0604 E-score; that for AACTAACT was 0.328 E-score; that for TAAAAGAA was -0.0248 E-score.
In the case of ACTGCCTC, the binding signal was -0.217 E-score.
The value for ACTTTGAG was -0.13 E-score.
To AGGCCTAC belongs -0.126 E-score; to GAACTCTA, -0.0227 E-score.
Turning to AATCAGTA, the binding signal was found to be 0.282 E-score.
To AAGTACCA belongs 0.2 E-score; to CGAAGAGA, 0.0981 E-score.
To AGTCCCAT belongs -0.144 E-score.
With AACATGGG, the binding signal is -0.0186 E-score.
Sequence CGAGGCTA displayed a binding signal of -0.141 E-score.
The value for CCAGCGAA was -0.2 E-score; that for CCCAATAG was -0.0151 E-score.
Take GCCTCCTA: the binding signal was -0.283 E-score.
With ACAGAAAA, the binding signal was 0.024 E-score.
To GGGAGCAA belongs -0.0906 E-score; to AGTGCAGG, -0.282 E-score; to GGATAAGA, -0.0593 E-score.
To CACCTGCA belongs -0.143 E-score; to AAGTCGTA, 0.03 E-score; to CCAGTCAG, -0.208 E-score.
The sequence CATAAGGC yielded a binding signal of -0.0956 E-score.
Sequence ACGCCCAC had a binding signal of -0.215 E-score.
In turn, ATGTGACA yielded a binding signal of 0.195 E-score.
To AACGTCCT belongs -0.153 E-score; to GCAACCCC, -0.403 E-score; to CCCGATGC, -0.215 E-score.
AATATTGA came in with a binding signal of 0.287 E-score.
The value for GATCATAA was 0.101 E-score; that for GATAGTAA was 0.406 E-score.
The sequence GGCGAAAA came in with a binding signal of 0.071 E-score.
With TCATGACA, the binding signal is 0.0176 E-score.
To AGCACTCA belongs 0.019 E-score; to AAGGGTAT, -0.164 E-score.
To ATGCATTA belongs 0.241 E-score; to CGCGATAC, 0.101 E-score; to CTGCCTCA, -0.111 E-score.
The value for CAAGCCGC was -0.199 E-score; that for GGCAGAAC was -0.0215 E-score.
In the case of CGGGTAGC, the binding signal was -0.16 E-score.
To ACGCAGCT belongs -0.119 E-score; to CTATAACA, 0.202 E-score; to AGGACCAT, -0.0261 E-score.
To ACAGATCC belongs -0.132 E-score; to CGTGGGTC, -0.216 E-score.
To CACAGCAA belongs 0.168 E-score.
AGACTTTG displayed a binding signal of -0.0584 E-score.
To CTGTGACC belongs -0.016 E-score; to GAATCGAA, -0.0491 E-score; to ATCAGGCA, 0.000587 E-score.
To AAATATCG belongs 0.316 E-score; to CCATGTAG, 0.271 E-score; to ACTACAGA, 0.218 E-score.
The value for ATGCACCC was -0.0917 E-score.
GAATCATA: the binding signal amounted to 0.0306 E-score.
To TATCGAAA belongs 0.13 E-score; to ATACAGAG, 0.0796 E-score.
To CTTAGCAA belongs 0.0585 E-score.
The value for AAGGTTCC was -0.376 E-score; that for AGCGAGCT was 0.0111 E-score; that for GCACCTCA was -0.185 E-score.
For GCGGGGCA, the binding signal was -0.272 E-score.
The value for AGTGACGG was -0.109 E-score; that for GATAGGGA was -0.0361 E-score.
The value for ATGTAGTC was 0.162 E-score; that for CCCAGACG was -0.218 E-score.
The value for AACCTCTC was -0.197 E-score.
CATCTACC returned a binding signal of 0.291 E-score.
The value for TACTGCCA was 0.0459 E-score.
For CCAAGGCA, the binding signal was -0.247 E-score.
The value for ACTGAAAC was -0.223 E-score.

The values are drawn from PMC6212790.
